In publication PMC4336329 (PLoS ONE, 2015):
The whole screen tested about 310,000 compounds, of which about 14,000 (4.5%) showed an effect of 50% or more. The effect is printed as a negative number. This is one part of the list.

What follows are compounds tested against human ether-à-go-go-related gene (hERG) potassium channel (human, UniProt Q12809) (assay: primary screen, population patch clamp on CHO cells stably expressing hERG).
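Further: peak tail current of the secondary pulse compared with the same well before compound.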

Chain of human ether-à-go-go-related gene (hERG) potassium channel (Q12809 whole entry, looked up): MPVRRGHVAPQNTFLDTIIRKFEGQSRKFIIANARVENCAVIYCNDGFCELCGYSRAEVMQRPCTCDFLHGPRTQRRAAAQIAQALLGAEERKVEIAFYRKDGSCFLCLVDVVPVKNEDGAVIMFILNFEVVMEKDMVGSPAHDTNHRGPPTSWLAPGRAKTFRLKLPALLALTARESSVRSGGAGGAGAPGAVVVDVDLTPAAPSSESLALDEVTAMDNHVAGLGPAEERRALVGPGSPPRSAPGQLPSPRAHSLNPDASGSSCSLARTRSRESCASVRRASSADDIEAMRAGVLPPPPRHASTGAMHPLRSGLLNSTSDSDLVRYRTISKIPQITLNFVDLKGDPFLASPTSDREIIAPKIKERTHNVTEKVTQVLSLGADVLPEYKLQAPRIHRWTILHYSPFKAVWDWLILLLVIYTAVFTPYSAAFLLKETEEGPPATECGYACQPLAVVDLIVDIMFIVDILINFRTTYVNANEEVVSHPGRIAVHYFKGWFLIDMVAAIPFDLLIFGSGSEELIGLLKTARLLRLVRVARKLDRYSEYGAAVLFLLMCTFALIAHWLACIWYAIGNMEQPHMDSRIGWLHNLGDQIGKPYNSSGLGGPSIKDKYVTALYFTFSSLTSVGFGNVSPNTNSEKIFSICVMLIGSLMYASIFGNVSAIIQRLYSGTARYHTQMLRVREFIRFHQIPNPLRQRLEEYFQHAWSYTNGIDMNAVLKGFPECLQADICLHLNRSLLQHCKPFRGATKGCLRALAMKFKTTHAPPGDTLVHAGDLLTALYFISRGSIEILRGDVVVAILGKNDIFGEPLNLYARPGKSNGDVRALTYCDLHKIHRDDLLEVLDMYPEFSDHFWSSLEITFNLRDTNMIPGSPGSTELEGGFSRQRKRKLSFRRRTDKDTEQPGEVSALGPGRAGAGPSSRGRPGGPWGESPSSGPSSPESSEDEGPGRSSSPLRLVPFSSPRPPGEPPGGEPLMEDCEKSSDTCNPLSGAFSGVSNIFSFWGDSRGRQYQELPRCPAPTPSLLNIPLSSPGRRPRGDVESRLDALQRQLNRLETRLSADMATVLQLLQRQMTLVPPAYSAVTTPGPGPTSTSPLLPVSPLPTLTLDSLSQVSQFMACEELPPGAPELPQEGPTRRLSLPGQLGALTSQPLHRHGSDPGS

Structure (SMILES)	hERG current change (%, negative = inhibition) at 10uM [%]
N#Cc1c(Sc2ncc(C(F)(F)F)cc2Cl)nsc1C/C=N\OCc1ccccc1Br	2.35
COc1cccc(-n2cc(-c3ccc(F)cc3)[nH]c2=S)c1	-17.5
COc1cc(C=O)ccc1OCCOCCOc1cc(C)ccc1Cl	-20.7
COc1ccc2c(c1)OC1=C(C(=O)CCC1)C2C1=C(O)CCCC1=O (stereo not shown)	10.7
CC(CC(=O)O)CC(=O)Nc1cccc([N+](=O)[O-])c1 (stereo not shown)	11.4
COc1cc(C(=O)N2CCc3ccccc32)c([N+](=O)[O-])cc1OC	17.2
O=C(O)c1ccccc1-c1csc(-c2ccccc2)n1	5.06
CCN(CC)c1ccc(/C=N/N2C(C)CCCC2C)c(O)c1 (stereo not shown)	-4.12
Cn1c(SCC(=O)Nc2ccc3c(c2)OCCO3)nnc1-c1cccnc1	12
CC(NC(=O)Nc1ccc2c(c1)OCO2)C1CCCO1 (stereo not shown)	14.4
CCCCCC(=O)OC(CN1CCCC1=O)C[NH+]1CCCCCC1.[Cl-] (stereo not shown)	-3.84
COC(=O)c1ccc(CSc2nnc(NC(=O)C3CC(=O)N(c4ccc5c(c4)OCCO5)C3)s2)cc1 (stereo not shown)	4.54
NC(=O)CSc1nnc(COc2ccccc2)n1Cc1ccco1	14
COc1cccc(N(CC(=O)Nc2cccc(F)c2)S(C)(=O)=O)c1	-3.51
Cc1ccc(CNC(=O)c2ccccc2SCC(=O)NCC2CCCCC2)cc1	-6.47
CCOC(=O)C1(C)NC(c2cccs2)C2C(=O)N(c3ccccc3)C(=O)C21 (stereo not shown)	9.37
Cc1n[nH]c(C)c1N1C(=O)c2cccc3c(Br)ccc(c23)C1=O	12.1
Cc1ccc(NC(=O)NCc2c(C)nn(C)c2C)cc1Cl	8
Fc1ccc(-c2csc(N3CCSCC3)n2)cc1	17.6
COc1cc(/C=C2\SC(=S)N(Nc3ccccc3)C2=O)ccc1O	2.26
Cc1cccc(NC(=O)NCC(c2ccc(F)cc2)N2CCN(C)CC2)c1 (stereo not shown)	-42.6
O=C(Nc1nc(-c2ccc(S(=O)(=O)N3CCCCCC3)cc2)cs1)c1cccs1	6.39
COc1cccc2c1Oc1ncccc1N(C(=O)CCC(=O)NCc1ccccc1Cl)C2	-18.9
C=CCN1C(=O)NC(=O)/C(=C\c2ccc(-c3ccccc3[N+](=O)[O-])o2)C1=O	0.207
COc1ccc(-c2cc(C(F)(F)F)nc(S(=O)(=O)CCC(=O)N3CCOCC3)n2)cc1	4.34
O=C(COC(=O)CNS(=O)(=O)c1ccc(F)c(F)c1F)NCCc1ccccc1	-10.4
Cc1cc(C)c(C)c(S(=O)(=O)N2CCN(CC(=O)Nc3ccc([N+](=O)[O-])cc3)CC2)c1C	15.4
COc1cc(C(=S)NC2CCCCC2)ccc1O	-5.09

Structure (SMILES)	hERG current change (%, negative = inhibition) at 10uM [%]
COc1cc(OC)cc(C(=O)NNC(=O)NC2CCCCC2)c1	2.32
O=C(c1ccc2ccccc2c1)C1CCCN(S(=O)(=O)c2cccnc2)C1 (stereo not shown)	1.33
CCCC(C)NC(=S)NC(=O)c1cc(S(=O)(=O)N2CCOCC2)ccc1C (stereo not shown)	-6.01
Cc1nnc(SC(C)C(=O)Nc2ccc3ccccc3c2)[nH]c1=O (stereo not shown)	27.1
O=C(NCc1ccc(Cl)cc1)c1cccc(NC2=NC3CS(=O)(=O)CC3S2)c1 (stereo not shown)	0.491
Cc1csc(SCC(=O)Nc2nccs2)n1	7.54
OCC(O)C(O)C(O)C(O)C1NCCS1 (stereo not shown)	0.867
CCC(C(=O)NCCc1ccc(OC)cc1OC)n1nc(C)n2c(cc3occc32)c1=O (stereo not shown)	-0.0107
CCOc1ccc(S(=O)(=O)N2Cc3ccccc3CC2C(=O)O)cc1 (stereo not shown)	11.2
COc1cc(Br)c(CN2CCCN(C)CC2)cc1OC	-0.597
NC(=O)CNCCC(c1ccccc1)c1ccccc1	-36
CCOC(=O)c1ccc(N2CSC3=C(C#N)C(c4cccs4)CC(=O)N3C2)cc1 (stereo not shown)	5.74
Cn1nc(C(=O)N2CCCCC2)c2c1-c1ccccc1S(=O)(=O)C2	14.7
COC(=O)c1ccc(N2NC(=O)/C(=C/c3ccc(OC)c(OC)c3)C2=O)cc1	17.8
CCC1=NC(c2ccc(OC)cc2OC)N(O)C1(C)C (stereo not shown)	-6.12
COc1cccc2sc(N(CCCN(C)C)C(=O)c3ccc(S(=O)(=O)N4CCc5ccccc5C4)cc3)nc12.Cl	3.58
Cc1oc(C)c2c(=O)ccc3c(c12)OC(N)=C(C#N)C3c1ccccc1Cl (stereo not shown)	18.6
Cc1ccc(C(=O)Nc2ccccc2C(=O)NC2CCCCC2)cc1S(=O)(=O)N1CCOCC1	20.8
O=C1CCc2ccc(OCCCCN3CCN(c4cccc(Cl)c4Cl)CC3)cc2N1	-5.73
COc1cc2cnc(-c3ccccc3)c(C(=O)c3ccc(F)cc3)c2cc1OC	1.89
COc1cc2ccccc2cc1C(=O)N(CCN(C)C)c1nc2c(C)cccc2s1.Cl	19.2
O=c1c2ccccc2nc(-c2ccco2)n1/N=C/c1ccccc1O	9.64
Clc1ccc(-c2ccc(C=Nc3ccc(N4CCOCC4)cc3)o2)c(Cl)c1	9.64
COc1ccc(C=C2C(=O)N(C)C(=O)N(C)C2=O)cc1COc1ccc(NC(C)=O)cc1	6.99
Brc1cccc(OCCCCn2cncn2)c1	11.2
O=C(C1=C[C@@H](c2ccccc2)C[C@@H](OCCCCO)O1)N1CCN(Cc2ccc3c(c2)OCO3)CC1	-55.2
Cc1cc(Br)ccc1OCCCCN1CCCCC1.O=C(O)C(=O)O	-78.9
